This is an account of results in US20220056142A1.

Assay [1] deals with T1, mouse FGFR3 with the G380R mutation, in primary rib chondrocytes of the achondroplasia (Ach) mouse model (mouse), Q61851.
Assay [2] has as its target T1, mouse FGFR3 with the G380R mutation, in …. This is another data set of the same source.
For assay [3] the target is unchanged. The source holds these as a separate data set.

Residue numbers refer to the chain shown, from its start.

T1 sequence (Q61851 21-801, stated change not applied): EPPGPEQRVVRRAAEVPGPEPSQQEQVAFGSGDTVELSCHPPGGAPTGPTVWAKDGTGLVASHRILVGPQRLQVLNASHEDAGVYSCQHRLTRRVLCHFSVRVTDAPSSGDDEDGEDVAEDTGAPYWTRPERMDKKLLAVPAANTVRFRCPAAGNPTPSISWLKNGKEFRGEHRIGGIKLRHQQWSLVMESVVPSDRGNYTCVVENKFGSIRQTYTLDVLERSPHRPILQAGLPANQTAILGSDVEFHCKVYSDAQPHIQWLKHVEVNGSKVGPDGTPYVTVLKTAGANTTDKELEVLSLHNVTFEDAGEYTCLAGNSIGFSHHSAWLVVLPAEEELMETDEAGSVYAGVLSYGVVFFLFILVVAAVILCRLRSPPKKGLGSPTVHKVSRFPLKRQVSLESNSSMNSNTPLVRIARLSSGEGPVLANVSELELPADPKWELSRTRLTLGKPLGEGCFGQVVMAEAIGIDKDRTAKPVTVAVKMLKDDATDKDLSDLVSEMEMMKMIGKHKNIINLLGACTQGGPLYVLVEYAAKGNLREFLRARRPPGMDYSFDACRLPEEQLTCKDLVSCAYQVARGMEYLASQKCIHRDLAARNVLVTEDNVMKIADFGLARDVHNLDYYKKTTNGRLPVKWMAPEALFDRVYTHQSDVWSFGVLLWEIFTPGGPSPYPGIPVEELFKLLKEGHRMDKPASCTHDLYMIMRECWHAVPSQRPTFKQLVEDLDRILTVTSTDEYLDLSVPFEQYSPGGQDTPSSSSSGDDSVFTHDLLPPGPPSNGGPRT

B1: KC18_Hu18 (antibody, human IgG1, kappa)
heavy: EVQLVQSGAEVKKPGATVKLSCKASGDTFTDFEIHWVQQAPGKGLEWIGDVDPETGGTAYAEKFQGRATLTADRSTDTAYMELSSLRSEDTAVYYCTRTYDGYPYAFDYWGQGTLVTVSS[human IgG1 constant region left out here]
light: DIVMTQSPDSLAVSLGERATINCKSSQSVLYSNNNKNYLAWYQQKPGQSPKLLIYWASTRESGVPDRFSGSGSGTDFTLTISSVQAEDVAVYYCQQYYSYRTFGGGTKVEIKRTVAAPSVFIFPPSDEQLKSGTASVVCLLNNFYPREAKVQWKVDNALQSGNSQESVTEQDSKDSTYSLSSTLTLSKADYEKHKVYACEVTHQGLSSPVTKSFNRGEC
Take B1: the IC50, inhibition of FGF18-stimulated Erk phosphorylation (pErk/Erk %, HTRF), 'Hu18 on Ach PRCs' in assay [1] turned out to be 0.54 µg/ml.

B2: KC18_Hu46 (antibody, human IgG1, kappa)
heavy: B1 heavy with M81L
light: B1 light with A19V, N33D, N35Q, W56F, V109L
Take B2: in assay [2], the IC50, inhibition of FGF18-stimulated Erk phosphorylation (pErk/Erk %, HTRF), 'Hu46 on Ach PRCs' came to 0.595 µg/ml.

B3: KC18_Hu44 (antibody, human IgG1, kappa)
heavy: B1 heavy with M81L
light: B1 light
On to B3, for which, in assay [3], the IC50, inhibition of FGF18-stimulated Erk phosphorylation (pErk/Erk ratio %, HTRF), 'Hu44 on Ach PRCs' worked out at 0.29 µg/ml.
